# Reference: the supplement of paper PMC8728848
# The other results are listed elsewhere or left out.
# B1: R410P1E11 (Tachypleus tridentatus), TAL2_TACTR (protein)
# chain: MEKGTPPTHDSDNWMGRAKEIGNGGWDQFQFLFFDPNGYLYAVSNDKLYKASPPQSDTDNWIARATEIGSGGWSGFKFLFFHPNGYLYAVRGQRFYKALPPVSNQD
# Legend:
# Experiment in all cases: glycan array binding signal (z-score within array); higher = stronger binding
# Conditions in all cases: glycan notation: IUPAC condensed, linker removed
# [1] = biological target: Neu5Ac(a2-3)Gal(b1-4)[Fuc(a1-3)]GlcNAc
# Method in brief: (§1)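 Arrays were curated from the Consortium for Functional Glycomics database, 3228 in total, and kept only where the protein sequence was available. Binding is expressed as a within-array Z-score. This score was averaged across arrays of the same protein sequence at different concentrations or buffers and across linkers, and negative values can be read as non-binding.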
# [2] = biological target: Neu5Ac(a2-3)Gal(b1-4)[Fuc(a1-3)]GlcNAc(b1-3)Gal
# Method in brief: as §1
# [3] = biological target: Neu5Ac(a2-3)Gal(b1-4)[Fuc(a1-3)]GlcNAc(b1-3)Gal(b1-4)GlcNAc
# Method in brief: as §1
# [4] = biological target: Neu5Ac(a2-3)Gal(b1-4)[Fuc(a1-3)]GlcNAc(b1-3)Gal(b1-4)[Fuc(a1-3)]GlcNAc(b1-3)Gal(b1-4)[Fuc(a1-3)]GlcNAc
# Method in brief: as §1
# [5] = biological target: Neu5Ac(a2-3)Gal(b1-4)[Fuc(a1-3)]GlcNAc(b1-6)[Gal(b1-3)]GalNAc
# Method in brief: as §1
# [6] = biological target: Neu5Ac(a2-3)Gal(b1-4)[Fuc(a1-3)]GlcNAc6S
# Method in brief: as §1
# [7] = biological target: Neu5Ac(a2-3)Gal6S(b1-4)GlcNAc
# Method in brief: as §1
# [8] = biological target: Neu5Ac(a2-3)Gal6S(b1-4)[Fuc(a1-3)]GlcNAc
# Method in brief: as §1
# Neu5Ac(a2-3)GalNAc = biological target: Neu5Ac(a2-3)GalNAc
# Method in brief: as §1
# [9] = biological target: Neu5Ac(a2-3)GalNAc(b1-4)GlcNAc
# Method in brief: as §1
# [10] = biological target: Neu5Ac(a2-3)[GalNAc(b1-4)]Gal(b1-4)Glc
# Method in brief: as §1
# [11] = biological target: Neu5Ac(a2-3)[GalNAc(b1-4)]Gal(b1-4)GlcNAc
# Method in brief: as §1
# [12] = biological target: Neu5Ac(a2-3)[Neu5Ac(a2-6)]GalNAc
# Method in brief: as §1
# Neu5Ac(a2-6)Gal = biological target: Neu5Ac(a2-6)Gal
# Method in brief: as §1
# Neu5Ac(a2-6)Gal(b1-4)Glc = biological target: Neu5Ac(a2-6)Gal(b1-4)Glc
# Method in brief: as §1
# [13] = biological target: Neu5Ac(a2-6)Gal(b1-4)GlcNAc
# Method in brief: as §1
# [14] = biological target: Neu5Ac(a2-6)Gal(b1-4)GlcNAc(b1-2)Man(a1-3)[Gal(b1-4)GlcNAc(b1-2)Man(a1-6)]Man(b1-4)GlcNAc(b1-4)GlcNAc
# Method in brief: as §1
# [15] = biological target: Neu5Ac(a2-6)Gal(b1-4)GlcNAc(b1-2)Man(a1-3)[GlcNAc(b1-2)Man(a1-6)]Man(b1-4)GlcNAc(b1-4)GlcNAc
# Method in brief: as §1
# [16] = biological target: Neu5Ac(a2-6)Gal(b1-4)GlcNAc(b1-2)Man(a1-3)[GlcNAc(b1-2)Man(b1-4)GlcNAc(b1-2)Man(a1-6)]Man(b1-4)GlcNAc(b1-4)GlcNAc
# Method in brief: as §1
# [17] = biological target: Neu5Ac(a2-6)Gal(b1-4)GlcNAc(b1-2)Man(a1-3)[Neu5Ac(a2-6)Gal(b1-4)GlcNAc(b1-2)Man(a1-6)]Man(b1-4)GlcNAc(b1-4)GlcNAc
# Method in brief: as §1
# [18] = biological target: Neu5Ac(a2-6)Gal(b1-4)GlcNAc(b1-2)Man(a1-6)[Gal(b1-4)GlcNAc(b1-2)Man(a1-3)]Man(b1-4)GlcNAc(b1-4)GlcNAc
# Method in brief: as §1
# [19] = biological target: Neu5Ac(a2-6)Gal(b1-4)GlcNAc(b1-2)Man(a1-6)[GlcNAc(b1-2)Man(a1-3)]Man(b1-4)GlcNAc(b1-4)GlcNAc
# Method in brief: as §1
# [20] = biological target: Neu5Ac(a2-6)Gal(b1-4)GlcNAc(b1-3)Gal(b1-4)GlcNAc
# Method in brief: as §1
# [21] = biological target: Neu5Ac(a2-6)Gal(b1-4)GlcNAc(b1-3)Gal(b1-4)[Fuc(a1-3)]GlcNAc(b1-3)Gal(b1-4)[Fuc(a1-3)]GlcNAc
# Method in brief: as §1
# [22] = biological target: Neu5Ac(a2-6)Gal(b1-4)GlcNAc6S
# Method in brief: as §1
# Neu5Ac(a2-6)GalNAc = biological target: Neu5Ac(a2-6)GalNAc
# Method in brief: as §1
# [23] = biological target: Neu5Ac(a2-6)GalNAc(b1-4)GlcNAc
# Method in brief: as §1
# Neu5Ac(a2-8)Neu5Ac = biological target: Neu5Ac(a2-8)Neu5Ac
# Method in brief: as §1
# [24] = biological target: Neu5Ac(a2-8)Neu5Ac(a2-3)Gal(b1-4)Glc
# Method in brief: as §1
# [25] = biological target: Neu5Ac(a2-8)Neu5Ac(a2-3)[GalNAc(b1-4)]Gal(b1-4)Glc
# Method in brief: as §1
# [26] = biological target: Neu5Ac(a2-8)Neu5Ac(a2-8)Neu5Ac
# Method in brief: as §1
# [27] = biological target: Neu5Ac(a2-8)Neu5Ac(a2-8)Neu5Ac(a2-3)Gal(b1-4)Glc
# Method in brief: as §1
# [28] = biological target: Neu5Ac(a2-8)Neu5Ac(a2-8)Neu5Ac(a2-3)[GalNAc(b1-4)]Gal(b1-4)Glc
# Method in brief: as §1
# [29] = biological target: Neu5Ac(a2-8)Neu5Ac(a2-8)Neu5Ac(a2-8)Neu5Ac(a2-3)[GalNAc(b1-4)]Gal(b1-4)Glc
# Method in brief: as §1
# [30] = biological target: Neu5Ac(b2-6)Gal(b1-4)GlcNAc
# Method in brief: as §1
# Neu5Ac(b2-6)GalNAc = biological target: Neu5Ac(b2-6)GalNAc
# Method in brief: as §1
# [31] = biological target: Neu5Ac9Ac(a2-6)Gal(b1-4)GlcNAc
# Method in brief: as §1
# [32] = biological target: Neu5Gc(a2-3)Gal(b1-3)GlcNAc
# Method in brief: as §1
# [33] = biological target: Neu5Gc(a2-3)Gal(b1-3)[Fuc(a1-4)]GlcNAc
# Method in brief: as §1
# Neu5Gc(a2-3)Gal(b1-4)Glc = biological target: Neu5Gc(a2-3)Gal(b1-4)Glc
# Method in brief: as §1
# [34] = biological target: Neu5Gc(a2-3)Gal(b1-4)GlcNAc
# Method in brief: as §1
# [35] = biological target: Neu5Gc(a2-3)Gal(b1-4)[Fuc(a1-3)]GlcNAc
# Method in brief: as §1
# [36] = biological target: Neu5Gc(a2-6)Gal(b1-4)GlcNAc
# Method in brief: as §1
# Neu5Gc(a2-6)GalNAc = biological target: Neu5Gc(a2-6)GalNAc
# Method in brief: as §1
# [37] = biological target: Neu5Gc(b2-6)Gal(b1-4)GlcNAc
# Method in brief: as §1
binder,measurement,setting,value
B1,glycan array binding signal (z-score),[1],-0.448
same,glycan array binding signal (z-score),[2],-0.706
same,glycan array binding signal (z-score),[3],-0.635
same,glycan array binding signal (z-score),[4],0.798
same,glycan array binding signal (z-score),[5],-0.087
same,glycan array binding signal (z-score),[6],-0.385
same,glycan array binding signal (z-score),[7],-0.344
same,glycan array binding signal (z-score),[8],-0.473
same,glycan array binding signal (z-score),Neu5Ac(a2-3)GalNAc,-0.169
same,glycan array binding signal (z-score),[9],0.139
same,glycan array binding signal (z-score),[10],0.332
same,glycan array binding signal (z-score),[11],-0.156
same,glycan array binding signal (z-score),[12],-0.27
same,glycan array binding signal (z-score),Neu5Ac(a2-6)Gal,1.23
same,glycan array binding signal (z-score),Neu5Ac(a2-6)Gal(b1-4)Glc,-0.166
same,glycan array binding signal (z-score),[13],-0.064
same,glycan array binding signal (z-score),[14],-0.583
same,glycan array binding signal (z-score),[15],-0.263
same,glycan array binding signal (z-score),[16],-0.735
same,glycan array binding signal (z-score),[17],-0.539
same,glycan array binding signal (z-score),[18],-0.38
same,glycan array binding signal (z-score),[19],-0.324
same,glycan array binding signal (z-score),[20],0.73
same,glycan array binding signal (z-score),[21],-0.448
same,glycan array binding signal (z-score),[22],-1.2
same,glycan array binding signal (z-score),Neu5Ac(a2-6)GalNAc,-0.406
same,glycan array binding signal (z-score),[23],-0.042
same,glycan array binding signal (z-score),Neu5Ac(a2-8)Neu5Ac,-0.039
same,glycan array binding signal (z-score),[24],0.579
same,glycan array binding signal (z-score),[25],-0.255
same,glycan array binding signal (z-score),[26],-0.105
same,glycan array binding signal (z-score),[27],-0.781
same,glycan array binding signal (z-score),[28],-0.267
same,glycan array binding signal (z-score),[29],-0.502
same,glycan array binding signal (z-score),[30],-0.614
same,glycan array binding signal (z-score),Neu5Ac(b2-6)GalNAc,-0.437
same,glycan array binding signal (z-score),[31],-0.241
same,glycan array binding signal (z-score),[32],-0.066
same,glycan array binding signal (z-score),[33],-0.517
same,glycan array binding signal (z-score),Neu5Gc(a2-3)Gal(b1-4)Glc,-0.082
same,glycan array binding signal (z-score),[34],-0.156
same,glycan array binding signal (z-score),[35],-0.277
same,glycan array binding signal (z-score),[36],0.352
same,glycan array binding signal (z-score),Neu5Gc(a2-6)GalNAc,0.337
same,glycan array binding signal (z-score),[37],-0.186
